# Measurements published in the supplement of paper PMC11417369.
# The other results are listed elsewhere or left out.
# Tested on: PfAP2-HC AP2 domain (GST-tagged)
# Assay: gcPBM binding intensity (ln(normalized median fluorescence intensity)); higher = stronger DNA binding
# How it was run: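 The binding buffer was 1× PBS containing 1% milk, 0.2 mg/ml BSA, 0.5% salmon testes DNA and 0.03% Triton X-100. In it, GST-tagged P. falciparum DNA-binding domains expressed in E. coli were applied for 1 h to an Agilent 4 × 180k array of primer-extended double-stranded 36-bp intergenic genomic probes plus negative controls. Binding intensity, read with Alexa488 anti-GST antibody and a 488 nm scan, is the highest Masliner-normalised natural-log median intensity across replicate spots of either probe orientation.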
row,Sequence,gcPBM binding intensity (ln)
1,AAGAAAAACTTTACGTGTACCAAACGTCATGCCAAC [XGTACX_site2575],9.58
2,ATGAAAAAATTTATATGTACTTAAAATATAATCATA [XGTACX_site1228],9.33
3,TATATTATTAAGATATGTACATAATTATAAATTTAA [XGTACX_site6848],9.45
4,ATAAATAAAGGACACACACACACACTAGAAAAAAAA [CACACA_site5450],11.1
5,AAAATAAAATTAGTTGCATGCAACTTAAACAGAAAT [TGCATGCA_site860],10.1
6,TTGTGCTTGATATCACGGACAAGCTCATATTATATA [XGTACX_site4553],9.44
7,AACAAATACAGACACACACACACACTAATAAAAAAA [CACACA_site8067],11.6
8,GATATATATTAATATACACACACACCGATATATATA [CACACA_site8462],10.2
9,TATTTTTATATTTTTGCACACATTCTTTACTCTTCA [CACACA_site2211],10.2
10,AAAAATTTTATATTCACACACATATATATATATATA [CACACA_site624],9.98
11,TTTATATTTTATAAATTATTCATAAATATATTTGTA [TGCATGCA_negctrl_site175],9.33
12,TTTTGAAACATATGATGTACACGAACATTTAAAAAA [XGTACX_site474],9.56
13,AAATTCCACCAACACACACACATATAAATAAATAAA [CACACA_site1233],11
14,AATAAATAGATAAGCACACAAGCATATAGACATATA [CACACA_site222],10.1
15,TATAAATAAAAACACACACACACATATATATATATA [CACACA_site2268],10.7
16,CTCTATAAATGCTGCACACACATTTAATTATTTAAG [CACACA_site2582],9.9
17,TATAAATATAAATATACACACATATTTATATTTATA [CACACA_site7053],9.69
18,AAATGAAATACATCCTGTACATAGTAATGCTAACAA [XGTACX_site6600],9.73
19,TTTTACAATGAAAGGTGTACAAGTAACAGTAGAACA [XGTACX_site1528],9.83
20,ATAAAAGATATTTTTACACACTTTTGATGAGATCGT [CACACA_site3053],9.71
21,ATACCAACATATTATACACACCTTTATATTTTTTTT [CACACA_site5217],10.1
22,GGTTGTATAAGTTTTTGTACATATATATATATATAT [XGTACX_site7487],9.84

row,Sequence,gcPBM binding intensity (ln)
1,TTCAAGGTTTTAGATTGTACAATTATTATATATATA [XGTACX_site8982],9.56
2,TGAGCATAAAAAGGGTGTACTTAAATATATTATATA [XGTACX_site7556],9.57
3,GAATATAATCTGTATTGTACGAAAGTTGAACACTTG [XGTACX_site8895],9.61
4,TTGTATTATTATGTTGCACACATTTTATATAAAATA [CACACA_site3641],9.91
5,TATATATATATATATATATATACAAATATATATTAT [CACACA_negctrl_site1729],9.52
6,TTTAGATAATTCATTACACACATGTATTTATATATA [CACACA_site5847],9.79
7,TTTTTGTAAAAACACACACACAAACAGAAAAAATAA [CACACA_site2076],10.3
8,TGTGCCCAAAATTATGCACACACCTAAAATTAATTT [CACACA_site2914],9.85
9,ATGGTAGTTCTCCATGCATGCCTTTTTATTATCATA [TGCATGCA_site681],10
10,ACTATTTAGTCTGGTGGTACTTTATATATAATTTCT [XGTACX_site5618],10.5
11,ATATGTGTATGTGCGTGTACATATCTATACAGTTGT [XGTACX_site6540],9.87
12,TTTTATCTTTTTTTATTTTAATGTATTATTTTTATG [XGTACX_negctrl_site24],9.69
13,ATTATCATAATGTTCACACATATGGTATATATAGAT [CACACA_site6113],9.7
14,TAATAAGAAATAACAGGTACACATATATAAATATTA [XGTACX_site2976],9.78
15,ATATGTAGATGATATTATTACTTTTCAAAAATTCAA [CACACA_negctrl_site933],9.6
16,TTTTTCATTAATACAAGTACAAAATGATGTTGACAT [XGTACX_site1475],9.27
17,AAGTATAAAAAAAGGCGTACAAAAAAAAAAAAAAAA [XGTACX_site7309],9.1
18,TTTTTGTATGCTTCCCGATTACATTATGTTGTAAAT [CACACA_negctrl_site227],9.77
19,ATTTATGTTATATATACACACACAAAAGAAAAAAAA [CACACA_site8977],9.96
20,TCCTACATATAAAAATGTACCCATTGTTTTTTTTTT [XGTACX_site7205],9.64
21,TATATATATATATATACACACATATACATATTGTTT [CACACA_site3499],9.64
22,AATGTATATAGAAACATGCACACGTGGTTGTATATA [CACACA_site3278],10.1
